From the supplement of paper PMC11417369
The other results are listed elsewhere or left out.

tested on: PfAP2-HC AP2 domain (GST-tagged); assay: gcPBM binding intensity (ln(normalized median fluorescence intensity)); higher = stronger DNA binding
Method in brief: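 DNA-binding domains from P. falciparum, fused to GST and produced in E. coli, were put on an Agilent 4 × 180k double-stranded probe array for 1 h in 1× PBS holding 1% milk, 0.2 mg/ml BSA, 0.5% salmon testes DNA and 0.03% Triton X-100. Probes were primer-extended, 36 bp long and drawn from intergenic genomic regions, with negative controls included. After Alexa488 anti-GST antibody detection and a 488 nm scan, binding intensity was set as the highest Masliner-normalised natural-log median intensity across replicate spots of either probe orientation.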

Sequence	gcPBM binding intensity (ln)
ATATAATATGTTGAATGTACTTAAAAAAATGTATCT [XGTACX_site5385]	9.71
TTAAGTTACAATTCTCGTACACATTAAAAGAAAATT [XGTACX_site699]	9.49
AAAAAAAAAAAAAAAACACACATGTATACTAGAATA [CACACA_site7108]	9.75
TATAAGAAATAAAACCTGATTATAAACCTGTAACCA [CACACA_negctrl_site1302]	9.66
AAGGCAAACAGACACACACACATATATACCTATATA [CACACA_site7077]	10.4
GTTATACACATTACATGTACAAAAGTTGCACTTCAT [XGTACX_site6023]	9.86
GTTGCCATCATTTGGCGTACAGTCAAAACCAAATCT [XGTACX_site1398]	9.27
AAATTTTTTTTTTAATTTTTTATTTAAAAAAAATAT [TGCATGCA_negctrl_site174]	9.02
GTTATAAATAAATATACACACATATATAAAATACAT [CACACA_site7146]	9.97
TATAACATAAAACACACACACATACATACACAAAAA [CACACA_site1804]	11
CGCTTTATTTATATATGTACATATATATATATATAC [XGTACX_site5012]	9.85
AAGAGCAACCAAATAGAAAAAGGAAAATAAAAGGAA [CACACA_negctrl_site100]	9.66
TCCTATTTTATATAATGTACATAAATATATTACATA [XGTACX_site2720]	9.65
TTTGTTCAATTTACATGTACAGATATAATCTAACAT [XGTACX_site370]	9.65
TCTATTAAAACAAATTGTACTTATTGATAAAGAATA [XGTACX_site3645]	9.4
ATTTTTATTTTATATACACACAATAATAATATAATA [CACACA_site4015]	9.54
AAAATATATAAACGCACATATATTTATGTATATATA [CACACA_negctrl_site163]	9.83
TAAAAAAAAACATGATGTACATAAAATTTTTTACTT [XGTACX_site7056]	9.63
AAAAGGGAAAAAATTAAAATTATATATATATATATG [CACACA_negctrl_site137]	9.41
TTATTAGAGATGTTAAGATATAGGGATAATTTCGAT [XGTACX_negctrl_site395]	9.48
TACATATATTTAAGGAGTACAAAAAATAATGATAAA [XGTACX_site3539]	9.64
ATATGTTTTAAGTGTACACATATAATGTATTTTGTT [CACACA_site4929]	9.82

Sequence	gcPBM binding intensity (ln)
TATTATGCTATTTAATGTACGGAATTTATATATATA [XGTACX_site564]	9.5
AACCTATCTATAGGAACAATATATATATATATAATT [CACACA_negctrl_site1707]	9.62
TTGCTCATTGAAATTATACACACCAAATATATAAAT [CACACA_site2482]	9.63
GACATAGTATTAAGTTGTACATATATAAAAATAAAT [XGTACX_site1583]	9.71
TTGCTTTTCATTTATTGTACATACCCAGTAGGATAA [XGTACX_site3939]	9.58
TTACGAATGAATATATGTACATATATATATATATAT [XGTACX_site3790]	10.1
AATGTACACGCACCCACACACAAACAAATATAAATA [CACACA_site7319]	11.6
ATGTTTTCAAAAATAAAACATATAAATAAATAAATA [TGCATGCA_negctrl_site226]	9.51
CAACAACAAATGAGAAGTACATAAATATTAACAATA [XGTACX_site4625]	9.96
TTATAATACCTACAAAGTACAAACTTAAATATGAAC [XGTACX_site5684]	9.59
AAGCTTAAAAATGGGGGTACGTCATAGGGATTCAAC [XGTACX_site8080]	9.79
AATATATAAACATATACACACAAAAACATATATATA [CACACA_site4855]	10.4
TTTGACACAATATTTTGTACGAAACTATTAATTCAA [XGTACX_site4853]	9.62
AAAAAAAAGAATTAGGCACACAATTTTAATATAGGA [CACACA_site1522]	9.75
ACTACGAATGGTAGAGTGCAGTCTGGAGAAGAGTAC [GTGCAC_site9685]	9.94
GCATACATCAAGCACACACACACACGCACACGCACA [CACACA_site6311]	11.3
GTGAAGTTCAAAATATGTACTTATGTATGTATTTTT [XGTACX_site165]	9.67
TTATGGATGGACAATAATAAAATTTTTACTTTTATT [CACACA_negctrl_site908]	9.48
TTATGTTTCATAAAAAATTAATCAAACATATATAAG [CACACA_negctrl_site666]	9.32
TATACATAGAAACACACACACATAAATAAATATATA [CACACA_site1342]	10.4
CCTTAAATAATATATTCACACAATATAACAAAAATT [CACACA_site4892]	9.56
TGGTATATAAAACACACACACATATGTATATATATA [CACACA_site926]	10.3

Sequence	gcPBM binding intensity (ln)
AAAAAAAAAATTATATATATATCCCTTATTTTTTCT [TGCATGCA_negctrl_site151]	9.68
TCATATATATTGAAATGTACTTATTTTTTCCTCATA [XGTACX_site6526]	9.48
CATACACAGAAACACACACACATATATACATATATA [CACACA_site1094]	10.4
AACAAATATGATTTTTTATATATTTTTAAATTTGGT [GTGCAC_negctrl_site189]	9.49
AGTTTAATTTTGTATACACACATTTGAATTATTAAT [CACACA_site7625]	9.93
TATATCTATTTCAAATGTACTTATATGATTCTTATA [XGTACX_site6277]	9.59
AGCTACAAAAATTAATATATATATGTATAGTTATAC [TGCATGCA_negctrl_site531]	9.4
AAATTACTGTAAAAAAGTACAGAAGTTCTTATTTTT [XGTACX_site7416]	9.44
GTTCATATAATAAAATGTACATAATATATTATATAT [XGTACX_site7623]	9.59
TATATGTAGATTAAACGTACTTACAACGGAATTATC [XGTACX_site3036]	9.64
GTATTATATTTTAATACACACCCAAATATTAAAAAG [CACACA_site8968]	9.77
AAATGTTCAGAAACTATTATAAAAATGGAATAATAT [CACACA_negctrl_site1544]	9.53
TGCCATCATATCATAGGTACACAAACATATAAAGAA [XGTACX_site4137]	9.63
CTTAATATGGATATTGCATGTAGAACATGAACAATA [TGCATGCA_site760]	9.61
TAAATATTATATTTATGTACATAAGTTTTTTTTAAT [XGTACX_site3559]	9.56
TTATGCTCAAAGAAAAGTACATAAATAAAAGTATAT [XGTACX_site7365]	9.54
TTAACAAATAAATGCACACATATATATAAATAATAT [CACACA_site28]	9.75
TAAACACCCATACATACACACATACATACACCCATA [CACACA_site5125]	10
TTCTTCAATATATTCTTACACACTTAAAAAAAAAAA [CACACA_site228]	9.34
ATATATATATATATATGTACATAATGCATATAATAT [XGTACX_site6142]	9.79
TTAATACTTTTTTCTGTACACACTTGATTTACTATA [CACACA_site2799]	9.98
GAAGGAAAAGATACGATAAAATAAGATATTAATTTA [GTGCAC_negctrl_site419]	9.53

Sequence	gcPBM binding intensity (ln)
GTATATAAATAAATAGTGCATTATTAAAAATAATGT	9.83
TTTTTTTTTTTTTATTGTACATACTTTTAAATATAT [XGTACX_site4303]	9.6
ATTGAGGCTGGTTATATAATAATTTTATTATTTTAG [GTGCAC_negctrl_site409]	9.71
ATATATTTATATTTTTGTACCCAAAATTGTTTGATG [XGTACX_site3581]	9.56
TAAAAGTTGAAGCACACACACAAAAGAAATACAATA [CACACA_site6649]	11.3
TTAAAGCTTGCATATACACACATACATAAATTCATA [CACACA_site7208]	9.73
TATCTCCACAAAAGATGTACTCATATTAATTTATAA [XGTACX_site3535]	9.1
GTATACAACATATGAACACACAAAATATTTTTTTTT [CACACA_site2928]	9.83
TATGAAAAGTAAAGTACACACAGGAAAAAAAAAAAA [CACACA_site1749]	9.91
TTTGTTATATTTAATACACACATATTATAAACACAT [CACACA_site7703]	9.88
ATAAATAAAGGACACACACACACACTAATAAAAAAA [CACACA_site8840]	11.4
TATATAATATATTTATGTACTCACAATGGGGTCTAC [XGTACX_site2691]	9.6
GGTATACTCAAGTATACACACATATATATATATATA [CACACA_site5746]	9.74
AAAATATATTAAGGCACACACATACAGATATATATA [CACACA_site5951]	11.1
TTTTTTCTTTTTTTTTTTTTTTTCTTTTTTTTTTTT [GTGCAC_negctrl_site196]	9.32
TACATACACAAATACACACACAAATACATACCCAAA [CACACA_site4550]	10.3
TACGTGAAATTATATACACACATAAATATGGGTGTA [CACACA_site5687]	9.67
TACATGATAGATCACACACACATATAAATATATATA [CACACA_site5562]	10.2
TAAAATAACTCACAAAGTACAAAAATAAGCATATGA [XGTACX_site7046]	9.79
ACATAAGACACAAATACACACAAAAATATATAACAA [CACACA_site4082]	10.2
AACAATATGGATGTATGTACACATATAGAACGTTAT [XGTACX_site7142]	10.2
TATGCATTTATGCATTGTACTTTTATAGATTCCACC [XGTACX_site7121]	9.33
